Test results published in the supplement of paper PMC10338343.
± gives the standard deviation. The entries are a selection whose mix differs from that of the whole data set.

What follows are sequences tested on MIWI (PIWIL1) piRISC loaded with piRNA #1 (30 nt) (assay: pre-steady-state target cleavage rate (min^-1); MIWI and MILI are mouse PIWI proteins and EfPiwi is from a freshwater sponge; tags in brackets are library labels; higher = faster piRNA-guided slicing of the target). Conditions: guide: piRNA #1 5'p-UGAGGUAGUAGGUUGUAUAGUAUCCAGAGG; auxiliary factor: 500 nM mouse GTSF1.
How it was run: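 Cleave-'n-Seq: a transcribed, DNA-blocked target RNA library (0.1 nM) was mixed with 1 nM active affinity-purified piRISC carrying one synthetic guide, with or without 500 nM GTSF1 partner protein, in HEPES–potassium acetate buffer at 33 °C for 0–8 or 0–960 min. Uncleaved targets were sequenced and normalised to depth and to weakly complementary targets. Three trials were pooled, and k3 was capped at 0.0001 min^-1. The pre-steady-state cleavage rate came from a burst-and-steady-state fit.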

First: GGAGAGGAUACUAUACAUCCUUCUACCUCA
Second: GGAGACGAUACUAUACAACCUACAACCUCA
The “pre-steady-state target cleavage rate” value of the first is lower: 0.21 ± 0.019 for the first, 0.766 ± 0.06 for the second.

Compared with GGAGUGGAUACUAUACUUCCUACUACCUCA, GCUCUGCAUACUAAACAACCUACUACCUCA is higher in “pre-steady-state target cleavage rate” value: 0.214 ± 0.026 for the first, 1.75 ± 0.12 for the second.

GGAGACCUUACUAUACAACCUACAACCUCA and GGAGAGGAUACUAUACAACCUGCUACCUCA are within error of each other in “pre-steady-state target cleavage rate” value: 0.776 ± 0.061 for the first, 0.754 ± 0.038 for the second.

Compared with GGAGACCUAUGAUAACAACCUAGUACCUGA, GGAGACCAUUCUAUACUACCUACUACCUCA is higher in “pre-steady-state target cleavage rate” value: less than 0.0001 for the first, 0.197 ± 0.022 for the second.

GGAGACGAUACUAAACAACCUACUACCUGA and GGAGACGAUACUAUACAACCUACUGACCUCA are within error of each other in “pre-steady-state target cleavage rate” value: 0.66 ± 0.093 for the first, 0.69 ± 0.04 for the second.

GGAGAGGAAACUAUUCAACCUACUACCUCA and GGAGACCUUACUAUACAACCUACUACCUA are within error of each other in “pre-steady-state target cleavage rate” value: 1.11 ± 0.076 for the first, 1.01 ± 0.081 for the second.

Compared with “GGAGACCUAUGAAUACAACCUACUAGGAGA [g6:g18:cont:t1A]”, GGUCUGGAUACUAUACAAGCUACUACGUCA is higher in “pre-steady-state target cleavage rate” value: less than 0.0001 for the first, 0.986 ± 0.046 for the second.

Going from GGUCUGGAUACUAUACAUCCUACUACGUCA to GCUCUGGAUAUAUACAACCUACUACCUCA, the “pre-steady-state target cleavage rate” value rises from 0.396 ± 0.045 to 1.62 ± 0.086.

Compared with GGAGAGGAUACUUAUACAACCUACUACCUCA, GGAGAGGAUACUAUUCAACCUUCUACCUCA is lower in “pre-steady-state target cleavage rate” value: 1.27 ± 0.069 for the first, 0.493 ± 0.021 for the second.

First: GGAGACCAUACAAUACAACCUACUACGUCA
Second: GGACUGGAUACUAUACAACGAACUACCUCA
The “pre-steady-state target cleavage rate” value of the first is higher: 0.511 ± 0.057 for the first, 0.0145 ± 0.0037 for the second.

Going from GGAGACGAUAGUAUACAACCUACUACCUCA to GCUCUGGAUACUAUACAACCUACAUCCUCA, the “pre-steady-state target cleavage rate” value falls from 1.07 ± 0.065 to 0.689 ± 0.043.

First: GGAGUGGAUACUAUACAACCUACUACCUCG [g2:g26:cont:t1G]
Second: GGAGACCAUACUAUACUACGUACUACCUCA
The “pre-steady-state target cleavage rate” value of the first is higher: 0.869 ± 0.07 for the first, 0.109 ± 0.016 for the second.

Compared with GGAGUGGAUACUAUACAUGCUACUACCUCA, GGACUGGAAACUAAACAACCUACUACCUCA is higher in “pre-steady-state target cleavage rate” value: 0.691 ± 0.042 for the first, 0.844 ± 0.099 for the second.

Compared with CCUCUGGAUAGUAUACAAGCUACUACCUCA, GGAGAGGAUACAAUACAACCUACAACCUCA is higher in “pre-steady-state target cleavage rate” value: 0.0677 ± 0.016 for the first, 0.696 ± 0.06 for the second.

First: GGAGAGGAUACUAUACAACCUAUUACCUCA
Second: GGAGAGGAUAGUAUACAAGCUACUACCUCA
The “pre-steady-state target cleavage rate” value of the first is higher: 1.06 ± 0.082 for the first, 0.00713 ± 0.0029 for the second.

First: GGAGACGAAACUAUACAACCAACUACCUCA
Second: GGAGACCUAACUAUACAAGCUUCUACCUCA
The “pre-steady-state target cleavage rate” value of the first is higher: 0.0629 ± 0.0094 for the first, 0.0289 ± 0.0062 for the second.

First: GGACUGGCAUACUAUACAACCUACUACCUCA
Second: GGAGUGGUUACAAUACAACCUACUACCUCA
The “pre-steady-state target cleavage rate” value of the first is higher: 1.68 ± 0.12 for the first, 1.2 ± 0.079 for the second.

Going from GGACUGGAUAGUAUACAACCAACUACCUCA to GGAGUGGUUACUAUACAACCAACUACCUCA, the “pre-steady-state target cleavage rate” value rises from 0.0731 ± 0.0094 to 0.117 ± 0.0086.

First: GGAGAGCAUACUAUACAACCUACUUCCUCA
Second: GGAGUGGAUACUAUACAACCUACUUACCUCA
The “pre-steady-state target cleavage rate” value of the first is lower: 0.452 ± 0.065 for the first, 1.11 ± 0.072 for the second.

First: GGAGACCUAUGAUUACAACCUAGUAGCUCA
Second: GGAGACCAUUCUAUACAACCUACUACCUCA
The “pre-steady-state target cleavage rate” value of the first is lower: less than 0.0001 for the first, 1.32 ± 0.1 for the second.
